Experimental data taken from article PMC12136788.
The other results are listed elsewhere or left out.

B1: chr12:47968718:47968836:+|3pUTR|ENSG00000134291|unk|FALSE|unique (ssRNA)
RNA: GGGAGUUCUACAGUCCGACGAUCCUGGGAGCUUUUUGAAAAGAAAGAAAAAAGUGUGUUGGCUUUUUUUUUUUUUAGAAAGUUAGAAUUGUUUUUACCAAGAGUCUAUGUGGGGCUUGAUUCACCCUUCAUCCAUUGGCUGGACAACAGAGGAUUGAGCAUCA
B2: ENSG00000124766:be:win_3751|3pUTR|ENSG00000124766|bound_else_gene|NA|bound_elsewhere_windowed (ssRNA)
RNA: GGGAGUUCUACAGUCCGACGAUCUUGUACAUUUAAGUCUGUAUUAUAAUAAGCAAAAAGAUUGUGUGUAUGUAUGUUUAAUAUAACAUGACAGGCACUAGGACGUCUGCCUUUUUAAGGCAGUUCCGUUAAGGGUUUUUGUUUCAACAGAGGAUUGAGCAUCA
B3: chr3:49886901:49887562:-|three_prime_utr|ENSG00000164078|control|control|control (ssRNA)
RNA: GGGAGUUCUACAGUCCGACGAUCCCAAGUGAUGCAGCAAUGCUGGGAGGCAGACCCAGCAGUGCGACCCACCUUCAGAGUACUAGUGGGGGAGGUGGAGCAGAUAGUGUCUGCACUGCUUGGGGACCAUUAUGUGCAGCUGCCCAACAGAGGAUUGAGCAUCA
B4: chr15:75657416:75657517:+|3pUTR|ENSG00000173548|msi1|total|mutant (ssRNA)
RNA: GGGAGUUCUACAGUCCGACGAUCCAUGGGUGCCCCUGGGAAAUUCCCCACUCCUCCGAAGUGGGGCACAGCAGGGGUGAGAACCGAGUCAGGAGCCCUCGAGGCCAAGGCCUGGGCUGCCGGUCAGUCAGUGAAGGUCAGGCCCAACAGAGGAUUGAGCAUCA
B5: chr2:167954955:167954998:-|3pUTR|ENSG00000198648|msi1_unk|FALSE|overlapping (ssRNA)
RNA: GGGAGUUCUACAGUCCGACGAUCGUUGUAUUUAGAAAUUAAUAUACUUAUAAAAUUAAGAUUUAUUAGCCAAACUUGAAUUCUAGUUUUAAAACUGACUGUGAAUUUUAUUUUUCAUAUAUUUAUGCAUUACACACCUUAGCUCAACAGAGGAUUGAGCAUCA
B6: chr12:1788447:1788559:+|3pUTR|ENSG00000006831|unk|total|mutant (ssRNA)
RNA: GGGAGUUCUACAGUCCGACGAUCUUUCUUUUUUGGCCCCCGGCUGGUUGGGACCUCUACAGCUUCAUUCUUUCACCAUUAAACCGUGGCCUUUUUCAGUAUUUUCCCUCUUCCCCUUUAUAAAUUAUGCUAAAGCCACAAAGCCAACAGAGGAUUGAGCAUCA
B7: ENSG00000124766:be:win_2001|3pUTR|ENSG00000124766|bound_else_gene|NA|bound_elsewhere_windowed (ssRNA)
RNA: GGGAGUUCUACAGUCCGACGAUCAUUUGGCCGAUGGCAGAUGUUUUGGGGGAACGCCGGGACUGAGAGACUCCACGCAGGCGAAUUCCCGUUUGGGGCUUUUUUUUCCUCCCUCUUUUCCCCUUGCCCCCUCUGCAGCCGGAGCAACAGAGGAUUGAGCAUCA
B8: chr2:240466480:240466663:+|3pUTR|ENSG00000063660|msi1|FALSE|unique (ssRNA)
RNA: GGGAGUUCUACAGUCCGACGAUCGGAGCCAGUGUGCCCAAAAGCCAUGUAUUUCAGGGACCUCAGGGGCACCUCCGGCUGCCUAGCCCUCCCCCCAGCUCCCUGCACCGCCGCAGAAGCAGCCCCUCGAGGCCUACAGAGGAGCAACAGAGGAUUGAGCAUCA
B9: ENSG00000164985:stop:overlap|stop_codon|ENSG00000164985|stop_codon|NA|stop_codon (ssRNA)
RNA: GGGAGUUCUACAGUCCGACGAUCAGCCAUCCAGUGAAGAGAGAGAGACUGAAAUAUCUCUGAAGGAUUCUACACUAGAUAACUAGGUUGACAUACCUGGAAUAUAGAGAACACUUGAGAAGUUUGUAAUGGUUUUCAUUUGAACAACAGAGGAUUGAGCAUCA
B10: chr13:79312715:79312816:-|3pUTR|ENSG00000139746|unk|FALSE|unique (ssRNA)
RNA: GGGAGUUCUACAGUCCGACGAUCCCUUGUGAUUUAUUAUAAUGUAGCAGCAUACUUAUAAAAGUGGUCUGUGCUGAGUCAGAUAGAGAGCCCAGCCCAUUAGAAACACAUCAUAAUUUAAGAAUAUGAUGCAGAAUGCCCUUACAACAGAGGAUUGAGCAUCA
B11: chr1:37709127:37709197:+|3pUTR|ENSG00000134690|msi1_unk|total|mutant (ssRNA)
RNA: GGGAGUUCUACAGUCCGACGAUCUGAAGACCAAAUACUGGUUUGGAGACAACUUCCAUGUCUUGCUCUUCUACCUCCCCCGUCCGUGGAAAUUUGGAUAAGGGAACUGCCGGGCCCAGAUUCUGGAGGUUUUAUGUCAUUGGCCAACAGAGGAUUGAGCAUCA
B12: chr6:43186014:43186115:+|CDS|ENSG00000112659|msi1|total|mutant (ssRNA)
RNA: GGGAGUUCUACAGUCCGACGAUCCUGCUUUUCUCCUUGGUGAAGCGCUACCUUUGUGUCACGUCCCUCCUGGAUCAGCUGAACCGCAGUCCAGAGCUGGGAGCUGGAGACCAAAGCUCCCCAUGUGCCACAAGAGAGAAAAGCCAACAGAGGAUUGAGCAUCA
B13: chr10:128104542:128104643:-|CDS|ENSG00000148773|msi1|FALSE|unique (ssRNA)
RNA: GGGAGUUCUACAGUCCGACGAUCAAGUGAUGAGAAAAAUAUCAACACAUUUGUGGAAACUCCAGUGCAGAAACUGGACCUGCUAGGAAAUUUACCUGGCAGCAAGAGACAGCCACAGACUCCUAAGGAAAAGGCUGAGGCUCUCAACAGAGGAUUGAGCAUCA
B14: chr17:58308540:58309380:-|CDS|ENSG00000005379|control|control|control (ssRNA)
RNA: GGGAGUUCUACAGUCCGACGAUCCAUCAGCAUCACCAGCUCCUGCUACCCUGGAGAUGGGGAGGCCUGGGGCACAGCAACUGUAGGAAGGCCCAGGGGGCCUCCGAAGGCCAAUUCAGGCCCCAAGCCCUACCCACGCCUCCCCAACAGAGGAUUGAGCAUCA
B15: chr15:64682558:64682659:+|3pUTR|ENSG00000180357|unk|total|mutant (ssRNA)
RNA: GGGAGUUCUACAGUCCGACGAUCCACACUGGUCUUGCCUCUUCUUUUCCACUGCUUGGCUCUUAAGCCUCAGGCAGAUAAACCCGUAUUCCCCCCAGCUUGGGGAACCUUGGAGUCUGCCAGGUCACCUCCGGGCAAGGCCCACAACAGAGGAUUGAGCAUCA
B16: chr2:190062223:190062596:-|CDS|ENSG00000138379|control|control|control (ssRNA)
RNA: GGGAGUUCUACAGUCCGACGAUCGGAAAAAGAGGGGCUGUGUAAUGCAUGUACUUGGAGACAAAACACUAAAUCUUCAAGAAUAGAAGCCAUUAAGAUACAAAUCCUCAGUAAACUUCGUCUGGAAACAGCUCCUAACAUCAGCAACAGAGGAUUGAGCAUCA
B17: chr2:73958838:73958951:+|3pUTR|ENSG00000114956|unk|FALSE|unique (ssRNA)
RNA: GGGAGUUCUACAGUCCGACGAUCCCAGCCCCUCUCAUCCCUGGAGCACUCUGCCGCUCAAGAGCUGGUUUGUUAAUUAUUGUUAGACUUUGCCAUUGUUUUCUUUUGUACCUGAAGCAUUUUGAAAAUAAAGUUUACUUAAGUCAACAGAGGAUUGAGCAUCA
B18: chr3:13816257:13818943:-|three_prime_utr|ENSG00000154764|control|control|control (ssRNA)
RNA: GGGAGUUCUACAGUCCGACGAUCGAAUUCUUCCACCUCGUCGGGAUCCGUUUUCUGCAAUCAAAGUGGACUGCUUGCUUUCCUAGCAGGAUGAUUUUGUUGCUAGGACAAGGAGCCGUGUAGAAGUGUACAUAACUAUUCUUUCAACAGAGGAUUGAGCAUCA
B19: chr20:45097661:45098695:-|CDS|ENSG00000124134|control|control|control (ssRNA)
RNA: GGGAGUUCUACAGUCCGACGAUCGCACGUGCUCGACGAGCUGUGCGUCUUCGCCUUUGGCCAGGAGGCCGACUACUGGGGCCUAGGCGAGAACGCGCUUGCCGCGUGCUGCCGCGCGCGCUACCUGGAGAGGCGGCUGACCCACAACAGAGGAUUGAGCAUCA
B20: chr12:100626600:100626701:+|3pUTR|ENSG00000139354|unk|FALSE|unique (ssRNA)
RNA: GGGAGUUCUACAGUCCGACGAUCAAUUUUAUCAUCAAGUAUUCCCUUAUAAAACCAAGUAACACUUCUUUAUCAGUAACUUUUAGAACUUAAAAGAAAGCAAAAAGUAAAUGGAAUUGUAGGCAAUUUAUGAAUCCUAGUAGACAACAGAGGAUUGAGCAUCA
B21: ENSG00000107863:be:win_551|CDS|ENSG00000107863|bound_else_gene|NA|bound_elsewhere_windowed (ssRNA)
RNA: GGGAGUUCUACAGUCCGACGAUCAAGGCAACGAAGCUUAUAGCGGCAAUGCCCGCAAUAUACCUGAACCUCCACCAAUCUGCUAUCCCUGGCUGCCAUCUGCCCCAUCAGCCAUGGCACAGCCAGUUGAAAUAUCUCCUCCUGCAACAGAGGAUUGAGCAUCA
B22: chr3:98585547:98585662:-|CDS|ENSG00000080819|unk|total|mutant (ssRNA)
RNA: GGGAGUUCUACAGUCCGACGAUCUCCAUUUGAUCCCUGGUUUGGCGCCGCUGUGUUUUCCAGGUGUGAUGAUUACUUCUUUACCGCCCAUCGUGGAGAACGGCGGGGCAUUGGUGGUAUCUUUUUUGAUGAUCUUGACUCUCCCAACAGAGGAUUGAGCAUCA

These binders were tested against MSI1 full-length (mouse, UniProt Q61474 1-362) (assay: nsRBNS (natural sequence RNA bind-n-seq); RBNS binding buffer (assumed for nsRBNS): 25 mM Tris pH 7.5, 150 mM KCl, 3 mM MgCl2, 0.01% Triton X-100, 500 ug/ml BSA, 20 U/ml SUPERase-In, 4 C; UNK is unkempt and MSI1 is Musashi-1; names of the RNAs are library labels; protein concentration not given here; high values mean tight binding).
Sequence of UniProt Q61474 (Q61474 whole entry): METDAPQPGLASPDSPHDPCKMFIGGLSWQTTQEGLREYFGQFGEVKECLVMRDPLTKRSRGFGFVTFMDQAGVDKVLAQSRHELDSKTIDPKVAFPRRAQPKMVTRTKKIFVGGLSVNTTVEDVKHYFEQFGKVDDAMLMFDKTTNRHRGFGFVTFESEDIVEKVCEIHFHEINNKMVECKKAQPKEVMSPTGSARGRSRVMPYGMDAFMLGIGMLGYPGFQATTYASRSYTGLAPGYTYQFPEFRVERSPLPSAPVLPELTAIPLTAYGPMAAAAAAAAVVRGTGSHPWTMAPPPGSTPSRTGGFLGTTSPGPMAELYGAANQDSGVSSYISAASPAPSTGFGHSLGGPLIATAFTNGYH

Binder | binding signal
B1 | 0.412 enrichment R
B2 | 0.578 enrichment R
B3 | 1.17 enrichment R
B4 | 0.249 enrichment R
B5 | 9.9 enrichment R
B6 | 0.933 enrichment R
B7 | 0.608 enrichment R
B8 | 0.472 enrichment R
B9 | 3.63 enrichment R
B10 | 17.8 enrichment R
B11 | 0.379 enrichment R
B12 | 0.337 enrichment R
B13 | 0.382 enrichment R
B14 | 0.354 enrichment R
B15 | 0.364 enrichment R
B16 | 0.318 enrichment R
B17 | 1.4 enrichment R
B18 | 0.286 enrichment R
B19 | 0.341 enrichment R
B20 | 11.4 enrichment R
B21 | 0.51 enrichment R
B22 | 0.293 enrichment R
